# In the supplement of paper PMC8728848:
# This is one part of the list.
# Assays:
# Experiment in all cases: glycan array binding signal (z-score within array); higher = stronger binding
# Conditions in all cases: glycan notation: IUPAC condensed, linker removed; mutation: Y228A
# [1] = target: Gal3S(b1-3)[Fuc(a1-4)]GlcNAc
# Outline: (§1)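 Glycan array binding is given as a within-array Z-score, which can be read as non-binding when negative. The arrays, 3228 of them, came from the Consortium for Functional Glycomics database and were retained only where the protein sequence was available. Z-scores were averaged across arrays of the same protein sequence at different concentrations or buffers and across linkers.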
# Gal3S(b1-4)Glc = target: Gal3S(b1-4)Glc
# Outline: as §1
# Gal3S(b1-4)Glc6S = target: Gal3S(b1-4)Glc6S
# Outline: as §1
# Gal3S(b1-4)GlcNAc = target: Gal3S(b1-4)GlcNAc
# Outline: as §1
# [2] = target: Gal3S(b1-4)[Fuc(a1-3)]Glc6S
# Outline: as §1
# [3] = target: Gal3S(b1-4)[Fuc(a1-3)]GlcNAc
# Outline: as §1
# [4] = target: Gal3S(b1-4)[Fuc(a1-3)]GlcNAc6S
# Outline: as §1
# Gal3S4S(b1-4)GlcNAc = target: Gal3S4S(b1-4)GlcNAc
# Outline: as §1
# Gal3S6S(b1-4)GlcNAc = target: Gal3S6S(b1-4)GlcNAc
# Outline: as §1
# Gal3S6S(b1-4)GlcNAc6S = target: Gal3S6S(b1-4)GlcNAc6S
# Outline: as §1
# Gal4S(b1-4)GlcNAc = target: Gal4S(b1-4)GlcNAc
# Outline: as §1
# Gal4S6S(b1-4)GlcNAc = target: Gal4S6S(b1-4)GlcNAc
# Outline: as §1
# Gal6P(b1-4)GlcNAc = target: Gal6P(b1-4)GlcNAc
# Outline: as §1
# Gal6S(b1-3)GlcNAc = target: Gal6S(b1-3)GlcNAc
# Outline: as §1
# Gal6S(b1-3)GlcNAc6S = target: Gal6S(b1-3)GlcNAc6S
# Outline: as §1
# Gal6S(b1-4)Glc = target: Gal6S(b1-4)Glc
# Outline: as §1
# Gal6S(b1-4)Glc6S = target: Gal6S(b1-4)Glc6S
# Outline: as §1
# Gal6S(b1-4)GlcNAc = target: Gal6S(b1-4)GlcNAc
# Outline: as §1
# Gal6S(b1-4)GlcNAc6S = target: Gal6S(b1-4)GlcNAc6S
# Outline: as §1
# GalNAc(a1-3)Gal = target: GalNAc(a1-3)Gal
# Outline: as §1
# GalNAc(a1-3)GalNAc = target: GalNAc(a1-3)GalNAc
# Outline: as §1
# [5] = target: GalNAc(a1-3)GalNAc(b1-3)Gal(a1-4)Gal(b1-4)Glc
# Outline: as §1
# [6] = target: GalNAc(a1-3)GalNAc(b1-3)Gal(a1-4)Gal(b1-4)GlcNAc
# Outline: as §1
# GalNAc(b1-3)Gal = target: GalNAc(b1-3)Gal
# Outline: as §1
# [7] = target: GalNAc(b1-3)Gal(a1-4)Gal(b1-4)GlcNAc
# Outline: as §1
# [8] = target: GalNAc(b1-3)Gal(a1-4)Gal(b1-4)GlcNAc(b1-3)Gal(b1-4)Glc
# Outline: as §1
# [9] = target: GalNAc(b1-3)Gal(a1-6)Gal(b1-4)Glc
# Outline: as §1
# GalNAc(b1-3)GalNAc = target: GalNAc(b1-3)GalNAc
# Outline: as §1
# GalNAc(b1-3)GlcNAc = target: GalNAc(b1-3)GlcNAc
# Outline: as §1
# GalNAc(b1-4)Gal(b1-4)Glc = target: GalNAc(b1-4)Gal(b1-4)Glc
# Outline: as §1
binder,measurement,setting,value
"Epa1-NP-mutant-Y228A (Candida glabrata), Q6VBJ0 (protein) MILNPALFLNKCVCIYTTLILLLLTNGGYATSSNDISLASKDPTTFPLGCSPDITTPKKGLSMELYSYDFRKKGSYPCWDAAYLDPNYPRTGYKSHRLLAKVDGVTGNINFYYHATKGCTPQLGHLPASYNYPKPLTMTNFTMLLYGYFRPKVTGFHTFTISADDLLFVNFGAGNAFDCCRRDSSADHFGNYQAYAIWGSKTAKDELTVHLDAGVYYPIRLFYNNREADGALSFTFKTESNENTVSDFSEYFFSLDDTEEGCPGLISYDSSCASVKTSKIIGIDYHTETPNENLVPITKTIYHLGIPCTGTTTTPLCGSGFYDPLANKCVTINTSSTSSVTKTTSHTTSKEVSFHSSISSQKTLIPKSIPSPYGPIKSQSIPTEMETSSEISSSEYAFSDVISTPSHSPYTKKHSSLNSSSYTSTVIHSLTSYSISQGIFSTSLSEQNITSKSSTDKFSTATSMSNNITQSSIIISQFSTNNENYTTTSMHTSSDKISTETLNNSISTTTSILFSNSSTILKNNTTIISSDKDTHYHPVNPTIVCSTNKTEIICASITQPSISNSNNHWSSSVLKFNSTTVRSTLPSSAGSNETSINVPFSSSTESNTSTSSTSTSNSKMVRSTLPSSAGSNETSISVPFSSSTESNTSTSSTSTSNSKMVRSTLPSSAGSNETSINVPFSSSTESNTSTSSTSTSNSKTVRSTPFSSAGIIMTSLSQRNNKSASSYASSNSKCYNTADSCRKVHSTPSYLLTSSYTSEGVDYDCSLVSTKLKINDTNCVNNKHTTKSCLKTSVTTTIPTLEIKTARKSSSNTIGLHSYPTSSPNKSISSAPIIGYISSFKTIKTASPSYQTSDLTTITTITSLNNPGSTAVENTHESNDKSRKTSSNDISSKHSVIKETKDAVESSNKSHQTNTLKCSSIIIASSSHNSYESLGGTTLTLTLSKVYSPQNNDTLPFLEISEVNPSRTVLPESSKMMQYLTSTEERNKTARNTIATNIVSISTFHFEGEGNAIRMGYTQLLLMLIGIIVMNIGT",glycan array binding signal (z-score),[1],-0.046
same,glycan array binding signal (z-score),Gal3S(b1-4)Glc,-0.141
same,glycan array binding signal (z-score),Gal3S(b1-4)Glc6S,-0.193
same,glycan array binding signal (z-score),Gal3S(b1-4)GlcNAc,-0.214
same,glycan array binding signal (z-score),[2],-0.074
same,glycan array binding signal (z-score),[3],-0.148
same,glycan array binding signal (z-score),[4],-0.089
same,glycan array binding signal (z-score),Gal3S4S(b1-4)GlcNAc,-0.259
same,glycan array binding signal (z-score),Gal3S6S(b1-4)GlcNAc,-0.198
same,glycan array binding signal (z-score),Gal3S6S(b1-4)GlcNAc6S,-0.137
same,glycan array binding signal (z-score),Gal4S(b1-4)GlcNAc,-0.365
same,glycan array binding signal (z-score),Gal4S6S(b1-4)GlcNAc,-0.16
same,glycan array binding signal (z-score),Gal6P(b1-4)GlcNAc,-0.164
same,glycan array binding signal (z-score),Gal6S(b1-3)GlcNAc,-0.026
same,glycan array binding signal (z-score),Gal6S(b1-3)GlcNAc6S,5.91
same,glycan array binding signal (z-score),Gal6S(b1-4)Glc,0.838
same,glycan array binding signal (z-score),Gal6S(b1-4)Glc6S,4.82
same,glycan array binding signal (z-score),Gal6S(b1-4)GlcNAc,0.109
same,glycan array binding signal (z-score),Gal6S(b1-4)GlcNAc6S,1.79
same,glycan array binding signal (z-score),GalNAc(a1-3)Gal,-0.29
same,glycan array binding signal (z-score),GalNAc(a1-3)GalNAc,-0.059
same,glycan array binding signal (z-score),[5],-0.261
same,glycan array binding signal (z-score),[6],-0.268
same,glycan array binding signal (z-score),GalNAc(b1-3)Gal,-0.202
same,glycan array binding signal (z-score),[7],-0.145
same,glycan array binding signal (z-score),[8],-0.285
same,glycan array binding signal (z-score),[9],-0.24
same,glycan array binding signal (z-score),GalNAc(b1-3)GalNAc,-0.233
same,glycan array binding signal (z-score),GalNAc(b1-3)GlcNAc,-0.135
same,glycan array binding signal (z-score),GalNAc(b1-4)Gal(b1-4)Glc,-0.188
